The whole screen tested about 310,000 compounds, of which about 14,000 (4.5%) showed an effect of 50% or more. The effect is printed as a negative number. This is one part of the list.
What follows are molecules tested against human ether-à-go-go-related gene (hERG) potassium channel (human, UniProt Q12809) (assay: primary screen, population patch clamp on CHO cells stably expressing hERG).
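Further: peak tail current of the secondary pulse compared with the same well before compound.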

Sequence of human ether-à-go-go-related gene (hERG) potassium channel (Q12809 whole entry, looked up): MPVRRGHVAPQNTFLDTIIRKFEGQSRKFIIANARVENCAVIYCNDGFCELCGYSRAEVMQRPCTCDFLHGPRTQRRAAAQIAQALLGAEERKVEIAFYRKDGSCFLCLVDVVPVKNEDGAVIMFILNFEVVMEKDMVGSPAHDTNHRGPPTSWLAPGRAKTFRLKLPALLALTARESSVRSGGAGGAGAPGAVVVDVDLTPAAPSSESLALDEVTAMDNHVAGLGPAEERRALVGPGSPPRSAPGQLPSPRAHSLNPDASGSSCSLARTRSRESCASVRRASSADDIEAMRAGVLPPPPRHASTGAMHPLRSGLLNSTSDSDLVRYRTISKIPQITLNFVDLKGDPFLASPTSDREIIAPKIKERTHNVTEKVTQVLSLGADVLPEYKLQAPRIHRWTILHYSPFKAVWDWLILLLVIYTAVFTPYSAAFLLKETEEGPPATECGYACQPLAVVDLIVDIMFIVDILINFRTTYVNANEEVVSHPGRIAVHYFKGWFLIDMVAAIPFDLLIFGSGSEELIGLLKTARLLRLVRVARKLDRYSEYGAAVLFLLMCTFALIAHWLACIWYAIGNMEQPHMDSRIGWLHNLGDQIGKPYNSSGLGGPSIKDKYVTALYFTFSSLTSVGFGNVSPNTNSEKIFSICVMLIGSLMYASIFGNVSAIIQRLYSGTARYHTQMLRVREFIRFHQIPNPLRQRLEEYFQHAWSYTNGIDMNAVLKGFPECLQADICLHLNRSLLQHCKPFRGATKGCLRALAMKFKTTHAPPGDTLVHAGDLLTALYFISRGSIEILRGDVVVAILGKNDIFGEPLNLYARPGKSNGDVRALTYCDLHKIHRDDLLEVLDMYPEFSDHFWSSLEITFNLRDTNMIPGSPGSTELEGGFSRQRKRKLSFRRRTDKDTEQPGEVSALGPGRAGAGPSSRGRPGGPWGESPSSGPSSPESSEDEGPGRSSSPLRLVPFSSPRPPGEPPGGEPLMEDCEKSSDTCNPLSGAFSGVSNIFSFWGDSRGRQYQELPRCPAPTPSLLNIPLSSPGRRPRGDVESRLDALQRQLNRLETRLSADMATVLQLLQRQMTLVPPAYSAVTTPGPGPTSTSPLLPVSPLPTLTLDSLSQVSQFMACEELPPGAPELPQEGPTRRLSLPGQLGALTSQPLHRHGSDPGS

In order of falling “hERG current change (%, negative = inhibition) at 10uM” value:
1. CC1CC(C)CN(C(=O)c2cc3cc(Br)cc(Br)c3o2)C1 (stereo not drawn)  28.1%
2. O=C(CC(C(=O)O)c1cccc(Cl)c1Cl)c1ccccc1 (stereo not drawn)  26.2%
3. CCC(C)(C)NC(=O)C(c1ccccc1Cl)N(C(=O)CCC(=O)Nc1cc(C)on1)c1ccc(NC(C)=O)cc1 (stereo not drawn)  24.7%
4. CC1=C(C)CC(C(=O)Nc2ccc3c(c2)OCO3)C(C(=O)O)C1 (stereo not drawn)  23%
5. CCOC(=O)C1CCN(c2nc3ccccc3n2CC(=O)c2ccccc2)CC1  19.8%
6. O=C1C=C(c2cc(Cl)cc(Cl)c2)C[C@@H](c2ccc(F)cc2)C1  19.6%
7. CC(=O)c1c(O)cc(=O)n(-c2ccccc2)c1-c1ccc(C)cc1  19.1%
8. Cc1ccc2c(c1)N(CC(=O)N1CCCCC1C)C(=O)CO2 (stereo not drawn)  18.3%
9. Cc1nn(CC(=O)N2CCN(c3ccccc3)CC2)c(=O)c2cccn12  18.1%
10. Brc1cccc(/C=N/Nc2nn[nH]n2)c1  18%
11. CCOc1ccc(OCCC(=O)OCC(=O)Nc2ccc(N3CCOCC3)cc2)cc1  17.9%
12. COc1ccc(C(=O)CCC(=O)N2CCN(c3ccc(C)cc3)C(C)C2)cc1 (stereo not drawn)  16.5%
13. CS(=O)(=O)c1ccc(-c2cc(Br)sc2-c2ccc(F)cc2)cc1  16.4%
14. COc1cccc(NC(=O)N2CCCC2C(=O)Nc2ccc3c(c2)OCO3)c1 (stereo not drawn)  15.8%
15. Cn1cc(CC(=O)NCCCN2CCCC2)c2ccccc21  15.6%
16. COc1ccc(NC(=S)N/N=C/c2cccn2Cc2ccccc2F)cc1  13.5%
17. CC(=O)Nc1ccc(/C=C/c2nc(-c3ccccc3O)n[nH]2)cc1  13.3%
18. CN1CCN(S(=O)(=O)c2csc(C(N)=O)c2)CC1  13%
19. O=C(CN1C(=O)COc2ccc(Cl)cc21)NCC1CCCO1 (stereo not drawn)  11.2%
20. C/C(CC(=O)NC(C)(C)C)=N\NC(=O)c1ccco1  8.86%
21. CSc1ncc(OCc2ccccc2)c(=O)[nH]1  8.39%
22. CC1(C)CC(=O)c2sc(NS(=O)(=O)Cc3ccccc3)nc2C1  8.25%
23. CC(/C=C\c1ccccc1)=C/C(=O)[O-]  8.24%
24. CSc1nsc(SCC(=O)Nc2ccc(O)c(C(=O)O)c2)n1  8.17%
25. O=S(=O)(c1ccccc1)N(F)S(=O)(=O)c1ccccc1  8.14%
26. CC(=O)N1CCc2cc(S(=O)(=O)C(C)CC(=O)NCc3ccc(C)o3)ccc21 (stereo not drawn)  7.92%
27. Cc1nn(Cc2ccc(Br)cc2)c(C)c1NC(=O)c1nn(C)cc1Cl  7.37%
28. COc1cc(OC)c(OC)cc1/C=N/NC(=S)NCCN1CCOCC1  7.35%
29. Cc1ccnc(NS(=O)(=O)c2ccc(NC(=O)c3cc(-c4ccccc4)nc4ccccc34)cc2)n1  7%
30. O=C1CSC(=Nc2ccc(F)cc2)N1  6.91%
31. CCc1c(C)nc(SCCOc2ccc(OC)cc2)[nH]c1=O  6.82%
32. C=C(C)Cn1c(CCn2c3ccccc3c3ccccc32)n[nH]c1=S  6.49%
33. COc1ccc(/C(C)=N/NC(=O)CNC(=O)/C=C\c2ccco2)cc1  6.28%
34. Cc1ccc2nc(N3CCN(S(=O)(=O)c4ccc5c(c4)OCCO5)CC3)c(C#N)cc2c1  5.82%
35. CCC(C)n1nccc1NC(=O)C(C)Cl (stereo not drawn)  5.71%
36. CCOc1ccc2nc(C(C)O)[nH]c2c1 (stereo not drawn)  5.23%
37. Cc1ccn2c(C(=O)c3ccc(Cl)cc3)cnc2c1  4.01%
38. Cc1ccc2nc(SCC(=O)N3CCCC3)[nH]c2c1  3.8%
39. O=C1NC(=O)C2C1C(c1ccccc1)N1C3C(=O)NC(=O)C3C(c3ccccc3)N21 (stereo not drawn)  3.74%
40. O=C(Nc1ccc2c(c1)OCO2)Nc1ccccn1  3.25%
41. CCOc1ccccc1NS(=O)(=O)c1c[nH]c(C(=O)OC)c1  3.14%
42. CCCCCN(C(=O)CSc1n[nH]c(-c2ccc(C)cc2)n1)c1c(N)n(CCCC)c(=O)[nH]c1=O  2.66%
43. COc1ccc(N(C)S(=O)(=O)c2ccc3c(c2)NC(=O)CO3)c(OC)c1  2.58%
44. COc1cccc(C2NC(=O)N(CCCC(=O)O)C(C)=C2C(=O)OCc2ccccc2)c1 (stereo not drawn)  2.01%
45. COC(=O)c1cc(NC(=O)CN2CCc3cc4c(cc3C2)OCCCO4)cc(C(=O)OC)c1  1.97%
46. COc1ccc(CNC(=O)COC(=O)CCOc2ccc(C)cc2)cc1OC  1.43%
47. Fc1ccc(-n2nnc(-c3cnc4ccccc4c3)n2)cc1  1.2%
48. CSc1ccc(S(=O)(=O)N2CC(=O)Nc3ccccc32)cc1  -0.208%
49. CCOC(=O)C(C(=O)Nc1ccccn1)C1CCCCC1 (stereo not drawn)  -0.427%
50. CC(=O)OC(c1nc2ccccc2c(=O)n1C1CC2(OC1=O)c1ccccc1N1C(=O)C(C)(C)N(O)C12)C(C)C (stereo not drawn)  -0.51%
51. CC1(C)CC(n2c(NCCO)nc3c(c2=O)C2(CCCC2)Cc2ccccc2-3)CCO1 (stereo not drawn)  -1.56%
52. COc1ccc(C(C(=O)NC2CCCCC2)N(C(=O)c2ccco2)c2ccccc2C(C)=O)cc1 (stereo not drawn)  -1.8%
53. Cc1ccc(-n2nnc3c(=O)n(CC(=O)N4CCOCC4)cnc32)cc1  -3.25%
54. COC(=O)[C@@]12CCCCN1[C@H](c1ccc(-c3ccc(F)cc3)c(OC)c1)[C@@H]1C(=O)N(C)C(=O)[C@@H]12.O=C(O)C(F)(F)F  -3.45%
55. CC(C)C(=O)N1CCC2(CC1)Oc1ccc(Cl)cc1C(=O)C21CC(c2ccc(Cl)cc2)=NO1 (stereo not drawn)  -3.73%
56. COc1ccc(CNS(=O)(=O)c2c(C)[nH]c(C)c2C(=O)N2CCCCC2)cc1  -4.24%
57. c1ccc(Cc2nnc3sc(-c4ccco4)nn23)cc1  -4.63%
58. O=c1[nH]c(=O)n(-c2ccccc2)c(O)c1/C=C1/C(c2ccccc2)=Nc2ccccc21  -4.66%
59. Cc1nc2sc(C(c3cccc(F)c3)N3CCC(C)CC3)c(O)n2n1 (stereo not drawn)  -5.78%
60. O=C(CNC(=O)c1cccc(Cl)c1)NCCCSc1ccccc1  -5.81%
61. COc1ccc(Cc2noc(CN3CCCC(OCc4ccccn4)C3)n2)cc1OC (stereo not drawn)  -6.44%
62. CCCC12CN3CC(CCC)(CN(C1)C3C(O)C(O)C(O)CO)C2=O (stereo not drawn)  -6.74%
63. C#Cc1cccc(C(=O)N2CCCC(C(=O)c3ccc(OC)cc3C)C2)c1 (stereo not drawn)  -6.8%
64. CCOC(=O)c1sc(NNC(=O)c2ccc(F)cc2)nc1C  -7.13%
65. Cc1nc(CN(C)C(=O)C2CCC(=O)N(CCc3cccc(F)c3)C2)cs1 (stereo not drawn)  -7.62%
66. N#Cc1cccnc1Nc1ccc(Cl)cc1  -9.77%
67. CCC(C)N1CCN(C(=O)COc2ccc3ccccc3c2)CC1.O=C(O)C(=O)O (stereo not drawn)  -11.1%
68. Cc1cccc(OCC(=O)NCC(=O)N/N=C/c2ccc([N+](=O)[O-])cc2)c1  -11.6%
69. O=C(CN1CCSCC1)N/N=C/c1ccc(Cl)cc1  -12.5%
70. COc1cc(/C=C(/C#N)c2nc3ccccc3[nH]2)ccc1Oc1ncccc1[N+](=O)[O-]  -12.5%
71. CCOc1ccc(C2=Nn3cnnc3SC2)cc1  -14.8%
72. COc1ccc(NC(=O)NN2CCN(C)CC2)cc1OC  -15.4%
73. COC(=O)c1ccccc1NC(=O)c1cccc(NC(=O)c2ccc(Br)o2)c1C  -15.5%
74. CCN(CC)c1cc(C)c2cc(NC(=O)c3ccccc3OC)ccc2n1  -18.6%
75. CC(Oc1ccc(F)cc1)C(=O)Nc1ccc(N2CCOCC2)cc1N1CCOCC1 (stereo not drawn)  -19.8%
76. CC(C)OCCCn1c(SC(C)C(=O)NC2CC2)nc2ccccc2c1=O (stereo not drawn)  -20.9%
77. Cn1c(N/N=C/c2cccs2)nc2c1c(=O)n(Cc1ccccc1)c(=O)n2C  -21.2%
78. O=C1CN=C(c2cccs2)c2c(sc3c2CCCC3)N1  -28.8%
79. CC(=O)N1N=C(c2cccnc2)OC1c1ccc(C(C)C)cc1 (stereo not drawn)  -30.1%
80. Cn1c(=O)c2c(nc(NCCCO)n2Cc2cccc(Br)c2)n(C)c1=O  -34.2%
81. COc1cc(NC(=O)c2ccco2)c(OC)cc1NC(=O)CSc1nnc(-c2cccs2)n1C  -42.6%
82. COc1ccccc1OCCCn1c(=O)oc2ccc(C)cc21  -45.7%
83. COC(=O)CCCNC(=O)c1ccc(OC2CCN(CCc3ccccc3)CC2)cc1  -47.7%
84. Cc1ccc(-n2c3nc(=O)[nH]c(=O)c-3cc3cc([N+](=O)[O-])ccc32)cc1  -57.6%
85. COc1ccc(C[C@H]2CN3C(=NC[C@H]3C)N2CCNC(=O)CCC2CCCCC2)cc1  -69%
86. COc1cccc(CN2CCN(CC(=O)Nc3ccccc3Cl)CC2)c1  -72%
87. O=C(C1CCCN(c2ncnc3c2nc2n3CCCCC2)C1)N1CCN(c2ccccc2F)CC1 (stereo not drawn)  -72%
